B1: PARP1 […] (CAT domain of PARP1 without the WGR) (domain or fragment)
chain: not shown
B2: PARP1 DNA-binding domain (DBD), fragment […], HA-tagged (domain or fragment)
chain: not shown
B3: chimera PARP2-1 ([…] of PARP2 fused to […] of PARP1) (enzyme, human)
chain: MAARRRRSTGGGRARALNESKRVNNGNTAPEDSSPAKKTRRCQRQESKKMPVAGGKANKDRTEDKQDESVKALLLKGKAPVDPDSGLEH[omitted - about 450 residues]

Assay [1] addresses B2. Put plainly: co-IP.
Assay [2] addresses PARP1 373–1014 (PARP1 DBD deletion mutant) (human, UniProt P09874 373-1014). The assay is described as follows: co-IP.

For B1, in assay [1], the binding result is “binds”.

On to B2, for which the binding result in assay [2] is reported as “binds”.

Take B3: in assay [1], the binding result is on record as “binds”.
